Assay results: US6348470B1, “Antitussive compositions” (priority 1997, dated 2002)

Experiments:
[1] = test system: 15% citric acid spray induced cough; experiment: citric acid spray-induced cough model, acute antitussive activity, single oral treatment; conditions: for decrease of cough number: 1 hour before second citric acid insult; for ED50: Cavia porcellus, po, 1 h, read-out: calculated ED50 (antitussive); for dose at which the antitussive effect was already significant: single oral treatment, 1 hour
[2] = test system: citric acid spray-induced cough; conditions: literature, guinea pig; cited from earlier work
[3] = cited from earlier work; for plasma half-life (t1/2): human plasma
[4] = test system: rats; experiment: acute oral toxicity in rats; conditions: for antitussive therapeutic index (LD50/ED50): rat oral LD50 / guinea pig antitussive ED50
[5] = test system: mucociliary clearance; experiment: mucociliary clearance of respiratory airways (99mTc-labelled red blood cells, gamma-camera); type: in vivo, rabbits; conditions: 8 mg/kg intravenously, 30 min before inhalation, p<0.05
Text: Patients with bronchitis are among those who most frequently use antitussive drugs. […] Wagner, U., et al., Eur.J.Pharmacol., 1996, 298:265). […] To investigate the effect of theobromine of mucociliary clearance activity the method of […]-Tuckerman was adapted ([…]., et al., Lung, 1992, 170:201). Bromhexine-HCl, a known secretolytic agent was used as reference substance. This model involves the administration of ^99mTechnecium-labelled homologues red blood cell suspension by inhalation. Theobromine and the reference agent bromhexine were administered intravenously 30 min before the inhalation of the labelled red blood cells. After the last inhalation of the nebulized cell suspension, the radioactivity was measured with a gamma-camera over the closed chest for a period of 60 min. The time-activity curves were generated and fitted to the measured points. The mucociliary clearance value was given as the amount of radioactive marker in percent elimination in unit of time (hour) The increase in mucociliary clearance value indicated quantitatively if the mucociliary activity has been enhanced by the previous drug treatment.

[6] = test system: 15% citric acid spray induced cough; experiment: habit formation study, repeated administration for 14 days, citric acid cough model; type: in vivo, guinea pig; conditions: 1 hour after treatment
Experimental: Some experiments have been carried out for habit formation studies. The aim of these experiments was to check whether the antitussive activity of theobromine remained constant after repeated (chronic) administration of the drug. The same method was adapted as described above. […] The antitussive effect was tested on Day1-Day7-Day14. The cough number was counted just before and 1 hour after the treatment on the indicated days. The control group (n=12) underwent the same protocol as the theobromine treated group (n=13).

[7] = test system: 15% citric acid spray induced cough; experiment: time-dependency of the antitussive effect, citric acid cough model; type: in vivo, guinea pig; conditions: 32 mg/kg p.o., FIG. 2
Experimental: It was justified by further experiments that the excellent antitussive effect of theobromine exists for several hours. The time-dependency of the antitussive effect of 32 mg/kg p.o. administered theobromine on Hartley guinea pigs was determined as specified in the 1 hour acute experiments.

[8] = 64 mg/kg oral, adjusted to control

Row | SMILES | antitussive activity [2] | decrease of cough number [1, 8] | plasma half-life (t1/2) [3] | ED50 [1] | dose at which the antitussive effect was already significant [1] | antitussive therapeutic index (LD50/ED50) [4] | further results
1 | Cn1c(=O)[nH]c(=O)c2[nH]cnc21 [3-methylxanthine] |  |  |  |  |  |  | antitussive effect ([1]; according to our experiments, at higher doses the dose-activity curve breaks down): some antitussive effect in a narrow dose range
2 | Cn1c(=O)c2[nH]cnc2n(C)c1=O.NCCN [Aminophylline, theophylline ethylenediamine] | practically ineffective |  |  |  |  |  | 
3 | Cn1c(=O)c2c(ncn2C)n(C)c1=O [caffeine] |  | 48.4±3.1% |  |  |  |  | decrease of cough number ([1]; 32 mg/kg oral): 17.5±3.7%; antitussive effect ([1]; dose-range of 2-16 mg/kg oral): no antitussive effect
4 | COc1ccc2c3c1O[C@H]1[C@@H](O)C=C[C@H]4[C@@H](C2)N(C)CC[C@@]341 [codeine, reference compound] |  | 54.2±5.7% | 2 to 4 h | 49 mg/kg | 8 mg/kg | 8.7 | 
5 | Cn1cnc2c1c(=O)[nH]c(=O)n2C [theobromine, 3,7-dihydro-3,7-dimethyl-1H-purine-2,6-dione] |  | 69.0±1.9% | 6.1 to 10 h | 37 mg/kg | 4 mg/kg | 34 | effect of repeated dosing on metabolism and clearance of theobromine ([3]; men, 6 mg/kg/day in the form of dark chocolate for one week): altered neither the metabolism of theobromine nor its clearance; increase in mucociliary clearance [5]: 60%; antitussive therapeutic index relative to that of codeine ([4]; LD50/ED50 of theobromine vs codeine): roughly 4 times; antitussive effect adjusted to control values ([6]; Day1, 32 mg/kg oral once a day): 46.1±2.3%; antitussive effect adjusted to control values ([6]; Day7, 32 mg/kg oral once a day): 54.1±3.4%; antitussive effect adjusted to control values ([6]; printed Day4 (third test day), 32 mg/kg oral once a day): 49.0±4.9%; duration of antitussive activity [7]: long-lasting antitussive activity
6 | Cn1c(=O)c2[nH]cnc2n(C)c1=O [theophylline] | weak antitussive activity |  |  |  |  |  | 
